The source of these data is PubChem BioAssay AID463173 (ICCB-Longwood Screening Facility, Harvard Medical School, 2010).

SMILES strings stand for the structures. About 4,300 (8.3%) of roughly 52,000 compounds were called active. No stated cut-off is given here; in the data, active means survival mostly below about 52% (no sharp cut-off); inactive means mostly above about 56%. Some of the results follow.

The assay has as its system DeltatarO mutant. Nature of the assay: growth inhibition of S. aureus wild type versus tarO mutant, primary screen, teichoic acid synthesis inhibitors, RN4220, OD600 (AID 463173). The conditions noted are these: OD600, 18 h, active compounds read low, screened at 18.75 µg/mL (by protocol).
As for `CC(=O)c1ccc(NS(=O)(=O)c2ccc(-n3cccn3)cc2)cc1`, the survival is inactive: 119%.

`CCOc1ccc(CNC(=O)c2cc(-c3ccc(Cl)s3)nc3ccccc23)cc1`: the survival is inactive: 96%.

`Cc1ccc2c(CNCc3ccc(C)o3)c(C(=O)O)n(Cc3ccc(F)cc3)c2c1`: the survival was inactive: 77%.

As to `O=C(c1ccc2c(c1)N(Cc1ccc(Cl)cc1)C(=O)c1ccccc1S2=O)N1CCCCC1` (centres undefined), the survival is inactive: 72%.

As to `O=C(NCCN1CCCCC1)c1ccc(Cn2c(SCc3ccccc3)nc3cccnc32)cc1`, the survival is inactive: 148%.

Consider `COCCCn1c(-c2ccc(S(=O)(=O)N3CCOCC3)cc2)csc1=Nc1ccccc1`, for which the survival is active: 52%.

As for `CC1(c2ccc(Cl)cc2)CC(C)(C)N(C(=O)c2cccc(F)c2)c2ccccc21` (centres undefined), the survival is active: 11%.

Take `COc1ccc(CNC(=O)c2cc3sccc3n2Cc2ccc(C)cc2)cc1`: the survival was inactive: 74%.

In the case of `O=C(Cc1ccccc1)Nc1sc2c(c1C(=O)Nc1ccc(Br)cc1)CCCC2`, the survival was active: 57%.

Consider `NC(=O)C1(C(N)=O)CCC1`, for which the survival is inactive: 81%.

As for `Cc1ccc(C(=O)Nc2ccccc2)cc1S(=O)(=O)Nc1ccccc1`, the survival is active: 46%.

With `COC(=O)c1c(C)oc2ccc(N(C(=O)c3ccncc3)S(=O)(=O)c3cc(C)ccc3C)cc12`, the survival was inactive: 46%.

In the case of `Cc1ccc(NC(=O)C2CCC(CNS(=O)(=O)c3cccc4nsnc34)CC2)c(Cl)c1` (centres undefined), the survival was active: 47%.

For `CC(C)N(C(=O)c1cccs1)C(C)C`, the survival was inactive: 97%.

For `COc1ccc(N2CCN(C(=O)C3CCN(S(=O)(=O)c4cn(C)cn4)CC3)CC2)cc1`, the survival was inactive: 69%.

`Cc1ccc(OC(=O)CSc2nnc(-c3ccc4c(c3)OCO4)o2)cc1`: the survival was inactive: 70%.

With `Cc1ccc(-n2ncc3c(N4CCC(Cc5ccccc5)CC4)ncnc32)cc1C`, the survival is inactive: 88%.

Regarding `Cc1cccc(N(C)C(=O)Cc2c(C(=O)O)[nH]c3ccccc23)c1`, the survival was inactive: 134%.

Turning to `Cc1cccc(NC(=O)CCNS(=O)(=O)c2ccc3c(c2)CCN3C(=O)C2CC2)c1`, the survival was inactive: 86%.

`CCOC(=O)C1CCN(C(c2ccc(C)cc2)c2c(O)cc(C)n(CCOC)c2=O)CC1` (centres undefined): the survival is inactive: 76%.

`CCOc1ccc(-c2cc(CCCC(=O)NCCc3cc(OC)c(OC)c(OC)c3)no2)cc1`: the survival is active: 43%.

Regarding `CN(C)c1nc(NCCNS(=O)(=O)c2ccc(Cl)cc2)nc(N(C)C)n1`, the survival was inactive: 84%.

On to `COc1ccc(CCNC(=O)CCCn2nc(C)c3sc4ccccc4c3c2=O)c(OC)c1`, for which the survival is inactive: 74%.

Regarding `CCOc1ccc(NC(=O)Cn2c(=O)n(CCCS(=O)(=O)C3CCCCC3)c(=O)c3ccccc32)cc1`, the survival was inactive: 77%.

Take `O=C1NC(c2ccccc2)/C(=C(\O)c2ccccc2)C1=O` (centres undefined): the survival was inactive: 70%.

With `CC(C)(C)NSc1nc2ccccc2s1`, the survival was active: 58%.

Turning to `COC(=O)c1cc(-c2ccc(OC)c(OC)c2)nc2ccccc12`, the survival is inactive: 72%.

Turning to `CC(C)(C)OC(=O)N1CCC(c2c(C(=O)N3CCCCC3)cnn2-c2cccc(F)c2)CC1`, the survival was inactive: 126%.

`CC(=O)c1ccc(N2CCN(C(=O)CCc3nnc4n(C)c(=O)c5sccc5n34)CC2)cc1`: the survival is inactive: 55%.

As to `COc1cc(OC)c(NC(=O)c2noc3c2CSc2ccccc2-3)cc1Cl`, the survival was inactive: 69%.

For `CCCCn1c(SCC(=O)Nc2ccc(OCC)cc2)nc2ccsc2c1=O`, the survival was inactive: 130%.

For the compound `Cc1ccc(CNC(=O)CSc2ncc3c(n2)-c2ccc(Cl)cc2N(Cc2ccccc2)S3(=O)=O)cc1`, the survival was inactive: 84%.

As for `Cc1ccc(NS(=O)(=O)c2cc3[nH]c(=O)c(=O)[nH]c3cc2C)cc1N(C)C`, the survival is inactive: 74%.

Take `CCc1ccccc1NC(=O)[C@@H](c1ccccc1)N1Cc2ccccc2C1=O`: the survival was active: 4%.

With `Cc1ccc(NC(=O)CCCn2c(=O)c3cccn3c3cccnc32)cc1C`, the survival was inactive: 79%.

As to `Cc1ccc(C)c(NC(=O)CSc2nnc(-c3cc4occc4n3C)n2-c2ccccc2C)c1`, the survival was inactive: 94%.

For the compound `Cc1cccc(C(=O)Nc2sc3c(c2C(=O)NC(C)C)CCCC3)c1`, the survival was active: 46%.

On to `Cn1c(=O)c2c(nc(NCCc3ccccc3)n2Cc2ccc(Cl)cc2)n(C)c1=O`, for which the survival is inactive: 48%.

Take `CCOC(=O)c1cc(S(=O)(=O)NCc2cccc(Cl)c2)[nH]n1`: the survival is inactive: 88%.

With `COc1ccc(OCC(=O)OCc2cc(=O)n3nc(C4CC4)sc3n2)cc1`, the survival is inactive: 61%.

As for `Cc1ccc(Nc2c(-c3ccc(C)s3)nc3ncccn23)cc1`, the survival was active: 9%.

As to `CCOC(=O)c1c(NC(=O)/C=C/c2ccc(C)cc2)sc2c1CCCC2`, the survival is active: 22%.

With `CCCCOC(=O)c1ccc(NC(=O)c2cc(-c3cccs3)on2)cc1`, the survival was inactive: 87%.

In the case of `Cc1ccc(CNC(=O)CCCc2nnc3n(C)c(=O)c4sccc4n23)cc1`, the survival is inactive: 82%.

For `O=C(NCCc1ccc(Cl)cc1)c1cc(-c2ccc(Cl)cc2)n[nH]1`, the survival is inactive: 68%.

Turning to `Cc1ccc(NC(=O)C(=O)NCC(c2ccc3c(c2)OCO3)N2CCOCC2)cc1C` (centres undefined), the survival is inactive: 73%.

For `CCC(C)NC(=O)c1ccc2nc(CCc3ccccc3)oc2c1` (centres undefined), the survival was inactive: 72%.

With `CC(C)CC(=O)Nc1ccccc1OCc1cc(=O)n2ccccc2n1`, the survival is inactive: 89%.

Regarding `CC(=O)N1CCc2c(sc3c2c(=O)n(-c2cc(Cl)ccc2C)c(=O)n3Cc2ccccc2F)C1`, the survival is inactive: 86%.

On to `CC1(C)CC(=O)c2c(oc3c(Cl)cc(NS(=O)(=O)c4ccc(Br)cc4)cc23)C1`, for which the survival was inactive: 63%.

Regarding `Cc1ccc(C)n1/N=C1\NC(=O)CS1`, the survival was inactive: 105%.

For `COc1ccc(C(=O)COC(=O)CCCC(=O)Nc2cc(C(F)(F)F)ccc2Cl)cc1`, the survival is inactive: 53%.

Consider `COC(=O)c1cc(Cl)ccc1NC(=O)CSc1ncc(S(=O)(=O)c2ccc(Br)cc2)c(=O)[nH]1`, for which the survival is inactive: 69%.

Regarding `O=C(Nc1ccc(Br)cc1F)N1CCC(CN2CCc3ccccc3C2)CC1`, the survival was inactive: 79%.

Consider `N#C/C(=C/c1ccc(-c2ccc(Cl)c(C(=O)O)c2)o1)C(=O)NC1CCCC1`, for which the survival was inactive: 96%.

As to `CCc1c(C)nc2c(C)cccc2c1SCCC#N`, the survival is inactive: 93%.

Take `CCOc1ccccc1Nc1sc(C(=O)c2ccccc2)c(N)c1S(=O)(=O)c1ccc(C)cc1`: the survival is inactive: 92%.

`COc1ccc(OC)c(NC(=O)c2cn(CC(C)C)c(=O)c3cc(OC)c(OC)cc23)c1`: the survival was active: 50%.

`Cc1ccc(CCNC(=O)c2cc3c(-c4ccccc4F)nn(C)c3s2)cc1`: the survival was inactive: 52%.

Take `O=C(NCc1ccccc1F)C(=O)NCC(c1ccco1)S(=O)(=O)c1cccs1` (centres undefined): the survival is active: 25%.

On to `O=C(CSc1nc(-c2ccccc2)nc2c1Cc1ccccc1O2)N1CCCCC1`, for which the survival was inactive: 58%.

Take `CC1=C(C(=O)Nc2ccccc2)C(c2cccc(Cl)c2)n2nc(SCC(=O)c3ccc(C)cc3)nc2N1` (centres undefined): the survival was active: 52%.

`Cc1ccc(Cn2c(=O)n(CCCCC(=O)NCc3ccccc3Cl)c(=O)c3ccccc32)cc1`: the survival was inactive: 102%.

For `O=c1[nH]c2ccc(NCc3ccc(-c4ccccc4)o3)cc2[nH]1`, the survival is inactive: 86%.

Consider `Cc1cccc(OCC(=O)Nc2ccccc2C(=O)OCc2cc(=O)n3nc(C)sc3n2)c1`, for which the survival was inactive: 71%.

In the case of `COc1ccc2c(CNC3CCCCCC3)c(C(=O)O)n(Cc3ccccc3F)c2c1`, the survival is inactive: 95%.

For the compound `CCOC(=O)c1c(S(=O)(=O)N2CCC(C(=O)Nc3ncccc3C)CC2)c(C)n(C)c1C`, the survival was inactive: 89%.

As for `CCOC(=O)c1cc(-c2ccc(OC)cc2)n(CCC(=O)NC2CCCCC2)c1C`, the survival is inactive: 115%.

On to `Cc1c(C(=O)OC2CCCCC2)[nH]c2c1C(=O)CC(c1ccc(C(C)(C)C)cc1)C2` (centres undefined), for which the survival was inactive: 97%.

As to `CCOC(=O)c1cnc2ccc(C)cc2c1Nc1ccc(N(CC)CC)cc1`, the survival was active: -5%.

Take `CCC(=O)N1CCc2cc(Br)cc(S(=O)(=O)CCC(=O)N3CCN(c4cc(C)ccc4C)CC3)c21`: the survival was inactive: 69%.

As for `CCCc1nnc(NC(=O)c2cc(=O)c3cc(C)c(C)cc3o2)s1`, the survival was active: 35%.

As for `CCOc1ccc(-c2oc3ccc(C)cc3c(=O)c2O)cc1`, the survival was inactive: 91%.

As to `COCCCNC(=O)c1ccc2c(c1)nc(C)n2-c1cccc(C)c1`, the survival was inactive: 69%.

`CCN(c1ccccc1)S(=O)(=O)c1ccc(NC(=O)c2cc(=O)c3ccccc3o2)cc1`: the survival was inactive: 63%.

For `O=c1c2oc3ccccc3c2n(Cc2ccc(F)cc2)c(=O)n1Cc1ccco1`, the survival was inactive: 71%.

With `CCCCn1c(=NC(=O)c2c(-c3c(F)cccc3Cl)noc2C)c(C(=O)OCC)cc2c(=O)n3ccccc3nc21`, the survival was inactive: 170%.

On to `COc1ccc(CNS(=O)(=O)c2cc(Br)cc3c2N(C(C)=O)C(C)C3)cc1` (centres undefined), for which the survival was inactive: 131%.

As for `O=C(NCc1cccc(F)c1)c1ccc(CN2CC(=O)N3CCCCC3C2=O)cc1` (centres undefined), the survival was inactive: 108%.

On to `CCOc1cccc(NC(=O)c2sc3nc(-c4ccc(F)cc4)ccc3c2N)c1`, for which the survival was inactive: 73%.

`CCSc1ncc(Cl)c(C(=O)N(Cc2ccccc2)c2ccc(OC)cc2)n1`: the survival was inactive: 100%.

Turning to `COc1cc(CNCCSc2nnnn2C)ccc1OCc1ccc(C)cc1`, the survival was inactive: 59%.

Consider `O=c1c(=O)n(-c2ccccc2)ccn1Cc1c(F)cccc1Cl`, for which the survival is active: 44%.

On to `O=C(COCc1cc(-c2cccs2)on1)N1CCN(c2ccc(F)cc2)CC1`, for which the survival was inactive: 98%.

In the case of `Cc1nc2cccnc2n1C1CCN(C(=O)Nc2ccccc2)CC1`, the survival is inactive: 78%.

Turning to `COc1cc(C(=O)Nc2ccc(-n3c(C)nc4ccccc4c3=O)cc2)cc(OC)c1OC`, the survival was inactive: 57%.

In the case of `Cc1cc(C)cc(N2CC(c3nnc(NC(=O)c4ccco4)s3)CC2=O)c1` (centres undefined), the survival is inactive: 70%.

Regarding `C#CCn1c(O)c(N=NC(=O)c2cc(OC)c(OC)c(OC)c2)c2ccccc21`, the survival is inactive: 62%.

Regarding `O=S(=O)(NCc1ccc(Cl)cc1)c1ccc2[nH]c3c(c2c1)CCCC3`, the survival is inactive: 91%.
